Test results taken from article PMC4336329 (PLoS ONE, 2015).
About 2,200 (0.71%) of roughly 310,000 compounds showed an effect of 50% or more. The effect is printed as a negative number. Some of the results follow.

target: human ether-à-go-go-related gene (hERG) potassium channel (human, UniProt Q12809); assay: primary screen, population patch clamp on CHO cells stably expressing hERG
Sequence (Q12809 whole entry, looked up): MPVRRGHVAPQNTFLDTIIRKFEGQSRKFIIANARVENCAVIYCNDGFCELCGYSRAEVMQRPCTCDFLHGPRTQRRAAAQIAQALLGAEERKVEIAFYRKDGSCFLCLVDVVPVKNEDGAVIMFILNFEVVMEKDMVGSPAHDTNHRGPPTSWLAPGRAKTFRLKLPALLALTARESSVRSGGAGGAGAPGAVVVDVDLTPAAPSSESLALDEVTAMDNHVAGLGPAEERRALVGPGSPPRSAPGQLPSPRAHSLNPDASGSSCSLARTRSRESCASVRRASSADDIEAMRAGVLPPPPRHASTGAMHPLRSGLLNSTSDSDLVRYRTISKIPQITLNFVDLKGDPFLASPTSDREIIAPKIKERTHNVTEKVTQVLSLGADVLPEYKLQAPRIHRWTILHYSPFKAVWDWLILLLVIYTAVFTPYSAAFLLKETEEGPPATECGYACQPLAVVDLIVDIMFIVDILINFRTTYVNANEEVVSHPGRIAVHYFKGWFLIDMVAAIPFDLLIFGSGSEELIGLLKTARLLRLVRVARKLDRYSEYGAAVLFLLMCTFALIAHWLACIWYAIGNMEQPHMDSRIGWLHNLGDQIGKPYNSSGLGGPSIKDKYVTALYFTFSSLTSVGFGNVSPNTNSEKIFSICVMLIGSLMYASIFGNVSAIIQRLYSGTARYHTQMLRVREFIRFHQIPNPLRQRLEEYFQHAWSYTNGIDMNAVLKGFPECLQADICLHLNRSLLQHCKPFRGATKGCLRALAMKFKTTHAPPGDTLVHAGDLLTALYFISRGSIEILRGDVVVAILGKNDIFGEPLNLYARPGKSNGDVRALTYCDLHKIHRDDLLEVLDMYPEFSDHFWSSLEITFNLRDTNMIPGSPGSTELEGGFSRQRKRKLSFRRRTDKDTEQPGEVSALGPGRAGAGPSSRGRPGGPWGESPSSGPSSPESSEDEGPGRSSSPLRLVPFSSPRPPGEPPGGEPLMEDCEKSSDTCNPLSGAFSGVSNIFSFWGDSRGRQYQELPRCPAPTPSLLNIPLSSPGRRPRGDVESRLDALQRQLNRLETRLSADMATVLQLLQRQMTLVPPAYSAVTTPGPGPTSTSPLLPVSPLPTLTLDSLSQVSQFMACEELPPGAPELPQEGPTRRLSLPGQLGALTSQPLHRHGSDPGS

Compound	hERG current change (%, negative = inhibition) at 1uM
Cc1c(C(=O)Nc2ccc(F)cc2)nnn1-c1cccc(C(F)(F)F)c1	8.01%
CC(=O)Nc1cccc(/C(C)=N/NC(=O)c2c(-c3ccccc3Cl)noc2C)c1	-2.52%
Cn1cccc1/C=C1\SC(=O)N(CC(=O)Nc2ccc(Cl)cc2)C1=O	23.3%
N#Cc1cc2nc([O-])c([O-])nc2cc1[N+](=O)[O-].[Na+]	12.4%
CC1CCN(S(=O)(=O)c2ccc(S(=O)(=O)N3CCC4(CC3)OCCO4)cc2)CC1	7.01%
CC(=O)N1N=C(c2cccs2)CC1c1ccco1 (stereo not shown)	8.93%
CC(C)CCNC(=O)[C@H](CSCc1ccccc1)N1Cc2ccccc2C1=O	-8.45%
COc1ccc(C)cc1C(=O)CCC(=O)Nc1ccccc1N1CCOCC1	11.1%
CC1(C)Cc2ccccc2C(=C(C#N)C#N)N1	1.8%
CSc1c(CC(=O)Nc2ccc(F)cc2)n(Cc2ccccc2)c2ccccc12	4.61%
COc1ccc(CNC(=O)C2Cc3ccccc3CN2C(=O)c2ccco2)cc1 (stereo not shown)	-9.69%
COc1ccc(Cl)cc1S(=O)(=O)N1CCN(c2ccc(F)cc2)CC1	5.81%
CCc1nnc(NC(=O)c2ccc(-c3ccccc3Cl)o2)s1	5.17%
Cc1ccc(OCC(=O)Nc2ccc3c(c2)OCO3)c(C)c1	8.38%
CCCNc1nc(C)cc(-c2cc(-c3ccc(Cl)cc3)on2)n1	15.2%
CNCCCOc1cc(C)cc(C)c1C.O=C(O)C(=O)O	11.8%
CC1CCN(CC(=O)Nc2ccccc2C(=O)c2ccccc2)CC1	4.66%
Nc1nnc(SCn2nnc3ccccc3c2=O)s1	8.05%
C=CCn1cccc(/C=C/C(=O)c2ccc(C(C)(C)C)cc2)c1=S	6.52%
COc1ccc(-c2cc(C(=O)Nc3ccc(C(N)=O)cc3)c3ccccc3n2)cc1OC	3.06%
CCOP(=O)(OCC)C(O)c1cccnc1 (stereo not shown)	-4.2%
CC(C)c1nc(SCC(=O)Nc2nc3c(s2)CCCC3)c2ccccc2n1	-2.91%

Compound	hERG current change (%, negative = inhibition) at 1uM
COc1ccc(OC)c(/C=N/N=C2\SCC(=O)N2Cc2ccco2)c1	9.96%
CCCCN(C)CCn1c(=S)[nH]c2ncccc2c1=O	-15.8%
Cc1ccc(OCc2nc(-c3ccccn3)no2)cc1	12.5%
O=C(CNC(=O)c1ccc(Br)o1)NCc1ccc(F)cc1	12%
Cc1ccc(/C(N)=N/OC(=O)C23CC4CC(CC(C4)C2)C3)cc1	6.33%
Cc1ccc(-n2c3c(cc(C(=O)NCC(=O)c4ccccc4)c2=O)C(=O)CCC3)cc1	12.7%
O=C1N/C(=C\c2ccc(O)cc2)C(O)=C1C=NCc1ccccc1	14.1%
COc1ccc([C@@H]2C[C@H]3CN(c4ccccc4)C(=O)[C@]34CCCN24)c(OC)c1OC	-4.79%
COc1ccc(-c2cc(=Nc3ccc(C(=O)O)cc3)c3cc(C)ccc3o2)cc1	7.75%
Cc1ccc(C(=O)Nc2ccccc2C(=O)NCc2ccccc2)cc1	7.4%
COc1ccc(C2CC(C)=NN2C=O)cc1OC (stereo not shown)	15.3%
CCOc1ccc(N2C(=O)CC(N(O)c3ccccc3)C2=O)cc1 (stereo not shown)	17.9%
COC(=O)c1[nH]c2ccccc2c1NC(=O)CN1CC(C)OC(C)C1 (stereo not shown)	5.62%
CC(C)(C)c1ccc(/C=C/C(=O)NCCCN2CCOCC2)cc1	-3.05%
C1CCc2c(nc3nnnn3c2NCC2CC2)C1	5.38%
N#Cc1cccc2c1-c1ccccc1/C2=N/NC(N)=O	11.5%
Cc1ccc(C(=O)O)cc1NC(=O)Nc1ccc2c(c1)OCO2	17.1%
CCCCC[C@H]1CN(CCCC)C(=O)[C@@H]1CC(=O)NCc1ccc(OC)cc1	-43%
CC(C)CCNC(=O)C(c1ccc(O)cc1)N(Cc1ccco1)C(=O)CCC(=O)Nc1nccs1 (stereo not shown)	2.87%
CCN(CC)c1ccc(/C=N/n2c(C)cc(C)cc2=O)cc1	-1.61%
CC1CN(C(=O)COC(=O)c2ccc(F)cc2Cl)CC(C)O1 (stereo not shown)	10.4%
Cc1cc(C)n(-c2nc3ccccc3n3cnnc23)n1	1.8%

Compound	hERG current change (%, negative = inhibition) at 1uM
O=C(c1ccc(NC2=NC3CS(=O)(=O)CC3S2)cc1)N1CCN(c2ccc(F)cc2)CC1 (stereo not shown)	8.65%
O=C(NCc1cccc(F)c1)c1ccc2nc(N3CCOCC3)sc2c1	-0.967%
CCCCN(C(=O)c1cccc(S(=O)(=O)N2CCCCC2)c1)C1CCS(=O)(=O)C1 (stereo not shown)	-0.881%
CCCC(=O)NCCCc1nc2ccccc2n1C(C)C	7.39%
Cc1ccc(N2CC(O)=C(c3nc4ccccc4c(=O)[nH]3)C2=N)cc1C	5.62%
Cc1cc(NC(=O)CN2C(=O)[C@@H]3[C@H](C2=O)[C@@H]2C[C@H]3C(Br)C2Br)no1 (stereo partly shown)	13%
CC(CNC(=O)CN1C(=O)C(=O)N(C2CCCC2)C1=O)c1ccccc1 (stereo not shown)	0.769%
O=C(NCc1ccncc1)C12CC3CC(CC(Cl)(C3)C1)C2	13.1%
CCOC(=O)C1CCCN(C(=O)c2cc3cc(OC)c(OC)cc3[nH]2)C1 (stereo not shown)	10.9%
CC(=O)Nc1ccc(S(=O)(=O)Nc2nc3ccccc3nc2Nc2ccc(S(N)(=O)=O)cc2)cc1	-2.28%
O=C(NC(=S)Nc1nc(-c2ccccc2)cs1)c1cccs1	16%
COc1cccc(-c2nc(-c3ccc(NC(=O)c4cccs4)cc3)no2)c1	7.71%
COc1cc(OC)c(S(=O)(=O)NCc2ccco2)cc1S(=O)(=O)NCc1ccco1	3.02%
CC(/C=N\NC(=O)c1ccc2c(c1)OCO2)c1ccccc1 (stereo not shown)	-8.04%
CCOC(=O)[C@@H]1[C@H]2COc3ccc(Br)cc3[C@@H]2N2C(=O)N(c3ccccc3)C(=O)[C@@]12C	4.9%
Cc1cccc(C(=O)N2CCCCCC2)c1	9.78%
CS(=O)(=O)c1ccc(C(=O)N2CCC(C(=O)O)(c3ccccc3)CC2)cc1	15.8%
C[N+](C)(C)CC(=O)N/N=C/c1c2ccccc2cc2ccccc12.[Cl-]	5.3%
Cc1c(S(=O)(=O)N2CCc3ccccc3C2)c(=O)n(C)c(=O)n1C	5.86%
CCCCOc1ccc(CSc2nnc(C)n2N)cc1[N+](=O)[O-]	-2.42%
COc1cc(NC(=O)c2ccc(C(C)(C)C)cc2)c(OC)cc1NC(=O)CN1CCCCC1	28.7%
COC(=O)Nc1ccc(SCC(=O)c2cccc([N+](=O)[O-])c2)cc1	6.19%

Compound	hERG current change (%, negative = inhibition) at 1uM
OC1CCCN(c2c3c(nc4cc(-c5cccc(F)c5)nn24)CCCC3)C1 (stereo not shown)	11.5%
CCOc1ccccc1CNCCN1CCOCC1.Cl	14.7%
O=C(CSc1nnc2ccc(-c3ccccn3)nn12)NCCc1ccccc1	4.75%
Cn1c(NN)nc2ccccc2c1=O	11%
CCOc1ccc(NC(=O)[C@@H](NC(=O)c2ccccc2Br)C(C)C)cc1	2.82%
Cc1ccsc1/C=N/Nc1ccc(C(=O)O)cc1	12.4%
CCn1c2ccccc2c2cc(NS(=O)(=O)c3ccccc3C)ccc21	10.6%
CCOc1ccc(N2CC(C(=O)Nc3ccc(S(=O)(=O)NCC4CCCO4)cc3)CC2=O)cc1 (stereo not shown)	12.4%
COc1cccc(/C=C/C(=O)OCC(=O)Nc2ccc(N3CCOCC3)cc2)c1OC	13.6%
CCc1ccc(N2C(=O)CN(Cc3cc(OC)c(OC)c(OC)c3)C2=S)cc1	1.21%
COc1ccc(OC)c(C2C(C(C)=O)=C(O)C(=O)N2CCN2CCOCC2)c1 (stereo not shown)	-5.3%
CCOc1ccc(NC(=O)COC(=O)C2C3CC4OC(=O)C2C4C3)cc1 (stereo not shown)	16.8%
O=C(NCc1ccccc1)c1ccc2nc(N3CCOCC3)sc2c1	7.69%
Cc1ccc(C2=NS(=O)(=O)N(C)C(C(=O)NCc3ccco3)=C2)cc1	-34.6%
CC(C)N(Cc1nc(-c2ccc(Cl)cc2)no1)C(=O)CN(C)S(=O)(=O)c1ccc(Cl)cc1	-5.47%
O=C(Nc1cc2c(cc1Br)OCCO2)c1cccnc1	5.77%
CCOc1ccc(NC(=O)c2cc3ccccc3cc2OC)cc1	13.8%
NS(=O)(=O)c1ccc(NC(=O)COC(=O)COc2ccccc2)cc1	14%
CCOc1ccc(Nc2nc(C)cc(C)c2C#N)cc1	11.1%
CCOc1ccccc1NC(=O)Cn1nnc(C(=O)Nc2ccc(C)cc2)c1N	-2.65%
CC(C)c1ccc(S(=O)(=O)N2CCN(CC(=O)Nc3ccc4c(c3)OCO4)CC2)cc1	4.61%
CC(C)OC(=O)Cn1cc(C#N)c2ccccc21	12.9%
